Experimental data from PubChem BioAssay AID1745845 (National Center for Advancing Translational Sciences (NCATS), 2022).
The whole screen tested about 360,000 compounds, of which about 2,600 (0.72%) were called active. This list was built around the results that the source calls inconclusive (neither active nor inactive); the mix of calls is not that of the screen. Calls come from the whole dose curve; as a rule, active = well fitted inhibition curve with a large enough effect; inconclusive = small, poorly fitted or top-dose-only effect; inactive = no such curve, though single readings can be large or run the other way. A potency beside an inconclusive call is a rough fit, not a confirmed value.

assay: Primary qHTS for Inhibitors of ATXN expression; details: HEK-293 ATXN2-luciferase reporter, luminescence, 24 h; activity change, negative = inhibition: at 57 µM (top of the series); note: nearly all actives have a fitted effect of over 55% in size
From the text: University of Utah School of Medicine, Salt Lake City, Utah
Spinocerebellar ataxia type 2 (SCA2) is a multisystem neurodegenerative disease caused by a dominantly acting mutation leading to expansion of a polyQ domain in the ataxin-2 protein (ATXN2). SCA2 patients develop progressive ataxia and later lose function in other neuronal systems. Prominent parkinsonian signs develop in some patients. Like many neurodegenerative disorders, no symptomatic or disease-modifying treatments are known.
The primary objective of the proposed research is to identify compounds inhibiting ATXN2 expression and to test them for efficacy in SCA2 mouse models. We have developed a cell-based assay paired with an in vivo mouse model using identical luciferase expression constructs. This approach takes advantage of an ATXN2-luciferase transgene, with the luciferase gene flanked by the upstream and downstream portions of the ATXN2 gene. Here we describe a 5-7 dose quantitative high thoroughput screen (qHTS) for compounds lowering ATXN2 expression. We screened the NIH Molecular Libraries Small Molecule Repository (MLSMR) and NCGC's mechanistically annotated (MIPE) and drug repurposing (NPC) collections of compounds for lowering expression of an ATXN2-luciferase reporter in HEK-293 cells. The assay is a multiplexed cell viability assay to ensure target reduction in the absence of cytotoxicity. Secondary qHTS assays included a CMV-luciferase reporter expressed in HEK-293 cells as well as a biochemical assay using recombinant luciferase to detect inhibitors of the reporter enzyme. Compounds that inhibit ATXN2 expression but is not cytotoxic were selected for confirmatory and secondary screens.
PROTOCOL TABLE (as described by Inglese J, Shamu CE and Guy RK. 2007)
SEQUENCE No. (e.g., 1, 2, 3, etc.); […] (e.g., Cells, Incubation, Reagent, etc.); VALUE; DESCRIPTION.
1; Cells; 4 uL; white, solid bottom, 1536-well Greiner assay plate.
2; Incubation; 2 hr; 37 degree C in 5% humidified CO2.
3; Compounds; 23 nL; Kalypsis pintool (Wako USA) equipped with a 1536-well pin head.
4; Incubation; 24 hr; 37 degree C in 5% humidified CO2.
5; Reagent; 1 uL; Gly-Phe-7-Amino-4-trifluoromethylcoumarin.
6; Incubation; 30 min; 37 degree C in 5% humidified CO2.
7; Detection; Fluorescence; ViewLux plate reader (PerkinElmer).
8; Reagent; 3 uL; SteadyGlo luciferase solution (Promega).
9; Incubation; 5 min; room temperature.
10; Detection; Luminescence; ViewLux plate reader (PerkinElmer).
NOTES (numbers refer to Sequence numbers above)
1. S2 cells expressing ATXN2-luciferase reporter were suspended in phenol-red free DMEM and dispensed in assay plates using a Multidrop Combi dispenser (Thermo Fisher Scientific).
2. Assay plates were incubated. Evaporation was prevented by covering assay plates with metal lids containing holes to allow gas diffusion.
3. Compounds were added in a dose response manner with the final concentrations of 57, 11.4, 2.28, 0.46, 0.091, 0.018, 0.0037 uM. Vehicle-only plates, with DMSO being pin-transferred to columns 5-48, were inserted uniformly at the beginning and the end of each library to monitor and record any shifts in assay performance.
5. 125 uM Gly-Phe-7-Amino-4-trifluoromethylcoumarin (MP Biomedicals) working concentration was used at a final concentration of 25 uM.
7. To assess cell viability; the assay plates were read using the ViewLux high-throughput CCD imager (PerkinElmer), wherein single end-point fluorescence measurement was acquired (excitation 405/10; emission 540/25 nm).
8. Detection reagent SteadyGlo Luciferase (Promega) was added to the assay plate.
10. Luminescence is then measured on the ViewLux imager equipped with a clear emission filter using a 2 sec exposure. All screening operations were performed on a fully integrated robotic system (Kalypsys) containing one RX-130 and two RX-90 anthropomorphic robotic arms (Staubli).
[…]
% is set by controls: 0 for no effect and ±100 for the full control effect; potency is the fitted concentration of half-maximal effect; tags give direction and shape of the fitted curve.

SMILES | Potency | activity change, negative = inhibition
COc1cc(SC)ccc1C(=O)NCCN1CCOCC1 | inconclusive: 8.44 µM [inhibitor, partial curve, poor fit] | 
O=C1C2=C(Nc3ccccc3SC2c2ccc(C(F)(F)F)cc2)c2ccccc21 (stereo not given) | inconclusive: 39.8 µM [inhibitor, single point] | 
O=C(Nc1nc2cc3c(cc2s1)OCO3)c1ccco1 | inconclusive: 28.2 µM [inhibitor, single point] | 
O=C(O)CSc1cc(NS(=O)(=O)c2cccc([N+](=O)[O-])c2)c2ccccc2c1O | inconclusive: 31.6 µM [inhibitor, single point] | 
COc1ccc(-c2nc(NC(=O)C3CC(=O)N(c4ccc5c(c4)OCCO5)C3)sc2C)cc1 (stereo not given) | active: 12.6 µM | 
Cc1nc(N2CCN(C(=O)c3ccco3)CC2)c2c3c(sc2n1)CCC3 | inconclusive: 20 µM [inhibitor, single point] | 
COc1ccc(C(C(=O)NC2CCCCC2)N(C(=O)CCl)c2ccc(Cl)cc2)cc1 (stereo not given) | active: 3.55 µM | 
CCc1ccc2nc(N=C(N)N)nc(C)c2c1 | inconclusive: 10.6 µM [inhibitor, partial curve, poor fit] | 
O=C(Nc1nncs1)c1cccc(S(=O)(=O)N2CCCC2)c1 | inconclusive: 28.2 µM [inhibitor, partial curve, poor fit] | 
C(=C\c1ccccc1)/CN1CCN(C(c2cccs2)c2nnnn2Cc2ccccc2)CC1 (stereo not given) | inconclusive: 39.8 µM [inhibitor, single point] | 
O=C(C[C@H]1C[C@H](C(=O)N2CCOCC2)[C@@]2(CCC3CCCC3)c3[nH]c4cc(-c5ccco5)ccc4c3CCN2C1=O)NCCN1CCOCC1 | inconclusive: 39.8 µM [inhibitor, single point] | 
C=CCN(CC=C)C(=S)NC(=O)c1ccc(-c2ccccc2)cc1 | inconclusive: 39.8 µM [inhibitor, single point] | 
COc1cccc(/C=N/NC(=O)N/N=C/c2cccc(OC)c2O)c1O | inconclusive: 35.5 µM [inhibitor, single point] | 
CCC(=O)Nc1ccc(C2C(=O)c3ccccc3C2=O)cc1 | inconclusive: 22.4 µM [inhibitor, single point] | 
CCN1CCN(c2oc(-c3ccc(COc4ccc(OC)cc4)o3)nc2C#N)CC1 | inconclusive: 17.8 µM [inhibitor, partial curve, poor fit] | 
CCCCCN1C(C(=O)c2ccccc2)=C(NC(=O)c2ccc(OC)c(OC)c2)c2ccccc2S1(=O)=O | inconclusive: 31.6 µM [inhibitor, single point] | 
COc1ccc(C(=O)Nc2ccc(C(=O)Nc3cccc(C)c3)cc2)cc1 | inconclusive: 7.94 µM [inhibitor, partial curve] | 
O=c1c2ccccc2nc(/C=C/c2ccc([N+](=O)[O-])o2)n1CCCO | active: 4.47 µM | 
COC1=CC(=O)c2c(ccc3ncnc(N)c23)C1=O | active: 2.82 µM | 
Cc1ccc(N(C(=O)Cn2nnc(-c3cccs3)n2)C(C(=O)NC2CCCC2)c2ccncc2)cc1 (stereo not given) | inconclusive: 31.6 µM [inhibitor, single point] | 

SMILES | Potency | activity change, negative = inhibition
Cc1ccc(NC(=O)CSc2nc3ccccc3c3nc(CCn4cncc4C)nn23)cc1F | inconclusive: 25.1 µM [inhibitor, single point] | 
CCCCCCCCOC(=O)c1cc([N+](=O)[O-])c(Sc2ncnc3nc[nH]c23)c([N+](=O)[O-])c1 | inconclusive: 20 µM [inhibitor, single point] | 
COc1ccccc1Oc1ccc(S(=O)(=O)NCc2ccccn2)cc1 |  | inactive: -0.31%
CN(C)Cc1cccc(N=C(c2ccccc2)c2c(O)[nH]c3cc(C(=O)N(C)C)ccc23)c1 | inconclusive: 7.69 µM [inhibitor, partial curve, poor fit] | 
CC(=O)Nc1ccc(NC(=O)C2(C)Cc3c(-c4ccc(NC(C)=O)cc4)ccnc3O2)cc1 (stereo not given) |  | inactive: 4.15%
Clc1cccc(Nc2nc(-c3ccncc3)nc3ccccc23)c1 | inconclusive: 37.7 µM [inhibitor, single point] | 
Cc1ccc2ncc(C(=O)NCc3ccccc3Cl)c(=O)n2c1 |  | inactive: -8.63%
CCN1C[C@@H]2[C@@H]3C(=O)N(Cc4ccccc4)C(=O)[C@@H]3[C@](CC)(C1=O)N2C(=O)c1ccc(Cl)c(Cl)c1 | inconclusive: 31.6 µM [inhibitor, partial curve, poor fit] | 
COc1ccc(C(=O)C2CCCN(Cc3cccn3-c3ccccn3)C2)c(OC)c1 (stereo not given) | inconclusive: 15.8 µM [inhibitor, partial curve] | 
CC(=O)N1CCSc2ccc(S(=O)(=O)NCCc3ccc(C)cc3)cc21 |  | inactive: -19.1%
COC(=O)c1ccc(NC(=O)c2ccc(NC(=O)c3ccco3)cc2)cc1 | inconclusive: 3.55 µM [inhibitor, partial curve] | 
CCOC(=O)C(=O)C1=C(N2CCOCC2)/C(=C\c2ccc(F)cc2)CC1 |  | inactive: 16.1%
COCCN(C(=O)c1ccco1)C(C(=O)NC1CCCC1)c1cccs1 (stereo not given) |  | inactive: -5.77%
COc1cc(/C=C2\SC(=O)N(CC(=O)Nc3ccccc3F)C2=O)cc(Cl)c1O | inconclusive: 7.94 µM [inhibitor, single point] | 
C=CCn1c(CCc2cc(C(C)(C)C)c(O)c(C(C)(C)C)c2)n[nH]c1=S | inconclusive: 2.67 µM [inhibitor, single point] | 
COc1ccc(/C=C/C(=O)NCc2ccc3c(c2)OCO3)cc1OC | inconclusive: 1.68 µM [inhibitor, partial curve, poor fit] | 
O=C(/C=N/NC(=O)c1ccccc1Br)c1ccccc1 |  | inactive: -5.03% [at 11.3 µM]
Cc1c(-c2ccccc2)[n+](=O)c2c(n1[O-])CCCC2 |  | inactive: 1.08%
Cc1[nH]c(=O)c(C(=O)/C=C/c2ccccc2)c2c1CCCC2 | inconclusive: 25.1 µM [inhibitor, partial curve, poor fit] | 
CCN(CC)c1ccc(N=Cc2cc(Br)ccc2O)cc1 | inconclusive: 11.2 µM [inhibitor, partial curve, poor fit] | 
